This is one part of the list.
T1: UNK ZnF1-6 (called full-length) (human, UniProt Q9C0B0 30-357)
T1 sequence: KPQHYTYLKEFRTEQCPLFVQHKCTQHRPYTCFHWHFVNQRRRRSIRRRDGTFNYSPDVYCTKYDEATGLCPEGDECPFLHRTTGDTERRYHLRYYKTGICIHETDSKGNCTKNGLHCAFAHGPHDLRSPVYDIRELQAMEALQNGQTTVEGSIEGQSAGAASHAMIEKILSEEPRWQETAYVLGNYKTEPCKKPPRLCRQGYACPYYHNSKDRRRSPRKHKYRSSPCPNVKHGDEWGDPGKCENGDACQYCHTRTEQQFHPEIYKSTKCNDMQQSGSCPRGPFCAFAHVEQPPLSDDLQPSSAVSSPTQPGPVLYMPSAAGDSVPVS

B1: chr2:25738620:25738721:-|3pUTR|ENSG00000143970|unk|total|mutant (ssRNA)
RNA: GGGAGUUCUACAGUCCGACGAUCAUACAUAUUAAUGACCUGACAGUUAACAUUCUGUUGUUUAUUAUUGCCUUUCUCCACCUCCGAGAGCCAUAAAUAACUCUCUGGUGAAGUGAUUUGCUAUAAUGGGGGUGAGGAGUGGGGCAACAGAGGAUUGAGCAUCA
B2: chr1:173887777:173887878:+|3pUTR|ENSG00000185278|unk|FALSE|unique (ssRNA)
RNA: GGGAGUUCUACAGUCCGACGAUCAAAGAGAUUUGGCAGAGGGACAGGUUGUACCUGCACUGGUGAACCAUCUGUGAGAAUGUUAGUCAUGUGCUCCUUUCCUGAGAUUGCUUUGUGGUAUGUGAAAAGGUGGGUAGAAAAGAACAACAGAGGAUUGAGCAUCA
B3: chr10:73916565:73916770:+|3pUTR|ENSG00000122861|msi1|FALSE|unique (ssRNA)
RNA: GGGAGUUCUACAGUCCGACGAUCCUGGUUGUCAUUUUUGCAGUAGAGUCAUCUCCAUCAGCUGUAAGAAGAGACUGGGAAGAUAGGCUCUGCACAGAUGGAUUUGCCUGUGCCACCCACCAGGGCGAACGACAAUAGCUUUACCAACAGAGGAUUGAGCAUCA
B4: ENSG00000198589:be:win_4451|CDS|ENSG00000198589|bound_else_gene|NA|bound_elsewhere_windowed (ssRNA)
RNA: GGGAGUUCUACAGUCCGACGAUCCUGCAGCGAAGAGCCCAGUGGACAUUGUGACUGGCGGUAUAUCUCCAGUAAGAGAUCUUGACAGGCUUCUACAGGACAUGGAUAUUAAUCGGCUUAGGGCAGUUGUUUUCAGAGACAUAGCAACAGAGGAUUGAGCAUCA
B5: ENSG00000136451:be:win_2451|3pUTR|ENSG00000136451|bound_else_gene|NA|bound_elsewhere_windowed (ssRNA)
RNA: GGGAGUUCUACAGUCCGACGAUCUUUAAAUUGGAAGACGCUGGAGGCACUGGGAUGUGAUAUGCCCCUCUCUCUCCCAAUCAGAGCCUGUUGAUAUUACAACAGGGACAGAUGUGUUAGUUGCUCACUAGAGUUUAUGUCUUACAACAGAGGAUUGAGCAUCA
B6: chr5:173956200:173956301:+|3pUTR|ENSG00000113742|unk|total|mutant (ssRNA)
RNA: GGGAGUUCUACAGUCCGACGAUCCCCCUUCCUCAACCUCUUCACGCUGGCAUGUCCUUUUGCCGCAGUCUGUAACUUAACUACCGUAUAAUGAAAAGAAUGACCUAUAAUACCGGUGUUUUGCCGAUUCUUGUGUCACUGCAACAACAGAGGAUUGAGCAUCA
B7: chr1:17067390:17067767:-|3pUTR|ENSG00000117115|msi1|total|mutant (ssRNA)
RNA: GGGAGUUCUACAGUCCGACGAUCCCCAACAUGCAAAGCCCACAUUUAAAGGCCAGCCUCUGCCCCUUCAGUGAUGCGCUCUUCCGAAAUGCCAGUCCACUAUAUUCAGAAAUCCGCAGGGCACAAAACUUCCAGCAAGUCACUCAACAGAGGAUUGAGCAUCA
B8: chr1:93152962:93153063:-|3pUTR|ENSG00000117500|msi1|total|mutant (ssRNA)
RNA: GGGAGUUCUACAGUCCGACGAUCGCUGGAAUUCUUGAUGAGCAAUAAUGAUAACCAGAGAGUGAUUUCAUUUACACUCACCGCCGUAUAAAAAGAGAUACAUUUCCCUCUCCGGCCCCUGGGAGAAGAGCAGCUCCGAUUUCCCAACAGAGGAUUGAGCAUCA
B9: chr7:114979563:114979664:+|CDS|ENSG00000135272|unk|total|mutant (ssRNA)
RNA: GGGAGUUCUACAGUCCGACGAUCCCAACCUCAGCGCUUGCCUCAGCUUCAGACUUCAGCCCAGGUGCCAAGUGGUGAGGAAACCGGCAAGAUAAAGAACGGCCACACAGGUCUGAGCAAUGGAAAUGGAAUUCACCACGGGGCCAACAGAGGAUUGAGCAUCA
B10: chr12:129073877:129075059:-|CDS|ENSG00000151952|control|control|control (ssRNA)
RNA: GGGAGUUCUACAGUCCGACGAUCACCUUCACCGCCGUCUCCUCAGACGACGAGUACCCCACCAGGAACUCCAUCGUGAUGAGUAGCGAGGAUGACAUUAAGUGGGUCUGCCAGGAUCUGGACCCUGGGGACUGCAAAGAGCUGCAACAGAGGAUUGAGCAUCA
B11: chr13:108210031:108210147:-|CDS|ENSG00000174405|unk|FALSE|unique (ssRNA)
RNA: GGGAGUUCUACAGUCCGACGAUCAUGGUUAAUAAUAAAAAGCUAGGGCAUGAGACUCUGAGAAAGAGGUAUGAGAUUCUUAGUAGUAUUUUUACACCAAUUCCAGGUAGAAUAGAAAUAGUGCAGAAAACACAAGCUCAUACUCAACAGAGGAUUGAGCAUCA
B12: chr5:40972473:40972581:+|CDS|ENSG00000112936|unk|FALSE|unique (ssRNA)
RNA: GGGAGUUCUACAGUCCGACGAUCAAAACCUUUCUACACAGUUGGUGAGAAGGUGACUGUUUCCUGUUCAGGUGGCAUGUCCUUAGAAGGUCCUUCAGCAUUUCUCUGUGGCUCCAGCCUUAAGUGGAGUCCUGAGAUGAAGAACAACAGAGGAUUGAGCAUCA
B13: chr9:124878635:124878736:-|3pUTR|ENSG00000136935|msi1|total|mutant (ssRNA)
RNA: GGGAGUUCUACAGUCCGACGAUCCCAGCCAUUGAACUGGUCCCACACGCACCCCAGGCCCCACUCCUCGGCAGUUUCAGGUGCCGCUGUGGGGCCCGUUCCCCGGUCUGUACUCACUUCCGGGAGGCUUCACUGACCCGGCUUCAACAGAGGAUUGAGCAUCA
B14: chr2:201645282:201645383:-|CDS|ENSG00000082126|unk|FALSE|unique (ssRNA)
RNA: GGGAGUUCUACAGUCCGACGAUCUACUAUCCAUAUUUUUCUAUUUCUCCUAAAGGAUGAAGACCUACAAGAGAUGGAAAAUUUAGCCCAAAGAAUGGAAACUCAGUUUGGCCAAUUUUUUGAUCAUGUGAUUGUGAAUGACAGCAACAGAGGAUUGAGCAUCA

target: T1, UNK ZnF1-6 (called full-length); test: nsRBNS (natural sequence RNA bind-n-seq); RBNS binding buffer (assumed for nsRBNS): 25 mM Tris pH 7.5, 150 mM KCl, 3 mM MgCl2, 0.01% Triton X-100, 500 ug/ml BSA, 20 U/ml SUPERase-In, 4 C; UNK is unkempt and MSI1 is Musashi-1; names of the RNAs are library labels; protein concentration not given here; high values mean tight binding

| Binder | binding signal [enrichment R] |
| --- | --- |
| B1 | 0.756 |
| B2 | 0.823 |
| B3 | 0.796 |
| B4 | 0.641 |
| B5 | 1.39 |
| B6 | 0.713 |
| B7 | 0.702 |
| B8 | 0.576 |
| B9 | 0.687 |
| B10 | 0.719 |
| B11 | 0.761 |
| B12 | 0.396 |
| B13 | 0.625 |
| B14 | 0.802 |

— publication PMC12136788
